Results: PubChem BioAssay AID603 (National Center for Advancing Translational Sciences (NCATS), 2007)
“And” between values parts separate entries of the source, which are not always exact repeats. Identical values can stand only once. Out of some 71,000 compounds screened, about 180 (0.25%) were called active. This list was built around the results that the source calls inconclusive (neither active nor inactive); the mix of calls is not that of the screen. Calls come from the whole dose curve; as a rule, active = well fitted curve in the direction sought with a large enough effect; inconclusive = small, poorly fitted or top-dose-only effect; inactive = flat fitted curve, though single readings scatter. Potencies beside an inconclusive call are fits to weak or partial responses and may not hold up. More than one record can exist for a structure, and the calls need not agree.

System: DNA polymerase III holoenzyme (E. coli)
Experiment: qHTS Assay for Inhibitors of DNA Polymerase III Holoenzyme System
Conditions: reconstituted DNA polymerase III holoenzyme replication, biochemical; series mostly up to 57.1 µM; activity change, negative = inhibition: at the top concentration
Method: NIH Molecular Libraries Screening Centers Network [MLSCN]
NIH Chemical Genomics Center [NCGC]
Assay Provider: Charles McHenry, University of Colorado
E. coli DNA polymerase III holoenzyme complex was assayed for DNA production by fluorescent detection of the double-stranded DNA product with PicoGreen dye. The holoenzyme complex was reconstituted from the following purified protein components: DNA Polymerase III, beta subunit processivity factor, SSB single-stranded DNA binding protein, and Primase. Single-stranded, circular M13Gori was used as a substrate with dNTPs and NTPs also supplied to the substrate reagent. Compounds from the NCGC collection were incubated with the holoenzyme mixture for 15 min at room temperature to allow binding to occur, and then the reaction was started by the addition of substrate. After 30 min incubation at room temperature, PicoGreen solution containing EDTA was added to stop the reaction and to visualize the double-stranded DNA produced. Reaction progress was measured in a ViewLux CCD imager in fluorescence intensity mode by using 480 nm excitation and 540 nm emission filter set.
NCGC Assay Protocol Summary:
Buffer. 50 mM Hepes-KOH, pH 7.5, 5 % Glycerol, 0.02% NP40, 30 mM potassium;
glutamate, 1.5 mM Magnesium Acetate, 16 uM TCEP.
Buffer in columns 3 and 4 as negative control (no enzyme).
Substrate solution: 5 uM each dATP, dGTP, dCTP and TTP, 50 uM each GTP, CTP, UTP and 200 uM ATP, 1.4 nM M13gori (final concentrations).
Enzyme: 154 nM SSB, 2 nM Primase, 1 nM Beta, 0.35 nM Pol III (final concentrations).
PicoGreen/EDTA: 10 mM Tris-HCl, 10 mM EDTA, 5 uM PicoGreen (final concentrations).
Control titration: ChemBridge 5805060 (from 10 mM, then 1:2, in duplicate) was pin-transferred to upper half of column 2.
Three uL of holoenzyme mixture were dispensed to 1536-well Greiner black solid bottom plates. Compounds and controls (23 nL) were transferred via Kalypsys PinTool. The plates were incubated for 15 min at room temperature, and then 1 uL of substrate solution was added to start the reaction. After room temperature incubation for 35 minutes, 1 uL of PicoGreen solution was added to each well and the plates were read 480 nm excitation and 540 nm emission using ViewLux (Perkin-Elmer) High-throughput CCD imager and fluorescence protocol settings.
Keywords: NIH Roadmap, MLSCN, MLI, MLSMR, qHTS, NCGC, DNA Polymerase III, DNAPol3, DNAPoly3, DNA replication targets
% is set by controls: 0 for no effect and ±100 for the full control effect.

Row | Structure (SMILES) | Potency | activity change, negative = inhibition
1 | O=C(O)[C@@H]1[C@H](C(=O)O)[C@]2(Cl)C(Cl)=C(Cl)[C@@]1(Cl)C2(Cl)Cl | active: 2 µM | 
2 | O=C1C2CC=CCC2C(=O)N1SC(Cl)(Cl)Cl (centres undefined) | active: 39.8 µM | 
3 | Cc1o[nH]c(=O)c1C[C@H](N)C(=O)O | inactive | 
4 | COc1cccc2c1C(=O)c1c(O)c3c(c(O)c1C2=O)C[C@](O)(/C(C)=N\O)C[C@@H]3O[C@H]1C[C@H](N)[C@@H](O)[C@H](C)O1 | active: 1 µM | 
5 | CC(=O)OCC1=C(C(=O)[O-])N2C(=O)[C@@H](NC(=O)CCC[C@@H](N)C(=O)[O-])[C@@H]2SC1.[Zn+2] | inconclusive: 39.8 µM | 
6 | [Cl-].[Cl-].[Hg+2] | active: 31.6 µM | 
7 | Oc1cc2c(cc1O)[C@H]1c3ccccc3CN[C@H]1CC2 |  | inactive: -8.5%
8 | CC(C)OC12Oc3ccccc3C=C1N1CCC2CC1 (centres undefined) | inconclusive: 6.31 µM | 
9 | NC12CN3CN(CN(C3)C1)C2 (tested in a mixture with another compound) | inconclusive: 5.01 µM | 
10 | O=S(=O)(Cl)c1ccccc1 | inconclusive: 15.8 µM | 
11 | C[C@@H]1O[C@@H](O[C@H]2C[C@@H](O)[C@@]3(CO)[C@H]4[C@H](O)C[C@]5(C)[C@@H](C6=CC(=O)OC6)CC[C@]5(O)[C@H]4CC[C@@]3(O)C2)[C@@H](O)[C@H](O)[C@H]1O |  | inactive: -3.8% [at 11.4 µM]
12 | CC[n+]1c(-c2ccccc2)c2cc(N)ccc2c2ccc(N)cc21 | active: 2 µM | 
13 | Nc1ccnn1C1CCNCC1 |  | inactive: -5.1%
14 | CN(C)[C@@H]1C(=O)C(C(N)=O)=C(O)[C@]2(O)C(=O)C3=C(O)c4c(O)cccc4[C@](C)(O)[C@H]3C[C@@H]12 | active: 3.16 µM | 
15 | C[C@@H]1[C@H]2C=C[C@@H]1[C@@H](c1c3ccc(=O)c(O)c-3oc3c(O)c(O)ccc13)[C@@H]2C(=O)O | active: 0.126 µM | 
16 | OC12CCCCC1C(c1ccccc1)NCC2 (centres undefined) | inconclusive: 6.31 µM | 
17 | O=C(NC1(C(F)(F)F)Oc2ccccc2O1)N1CCC2(CC1)OCCO2 | inconclusive: 6.31 µM | 
18 | c1cc2cc(c1)C[n+]1ccc(c3ccccc31)NCc1ccc(cc1)CNc1cc[n+](c3ccccc13)C2 | active: 31.6 µM | 
19 | Cn1ncnc2c(=O)n(C)c(=O)nc1-2 |  | inactive: -0.4%
20 | CC(=O)[O-].CC(=O)[O-].O.O.[Cd+2] | active: 0.251 µM | 

Row | Structure (SMILES) | Potency | activity change, negative = inhibition
21 | CN(N=O)c1cc(O)ccc1O | active: 3.16 µM | 
22 | FC(F)(F)c1ccc2c(c1)ncn2C1CCN(Cc2nnnn2C2CCCCC2)CC1 | inconclusive: 6.31 µM | 
23 | CN(N=O)c1ccc(O)c(O)c1 | active: 0.398 µM | 
24 | Cc1ccc(Cn2nnnc2CN2CCC(n3nnc4cc(C(F)(F)F)ccc43)CC2)cc1 | inconclusive: 31.6 µM | 
25 | CN1CCC(n2nccc2N)CC1 |  | inactive: 56.4%
26 | C[C@H](N)[C@H](O)c1ccc(O)c(O)c1 | active: 31.6 µM and active: 5.01 µM | 
27 | ClC=CCl |  | inactive: -2.1%
28 | O=C(O)/C=C\c1ccc[c]([Sb](=[O])([OH])[OH])c1 | active: 0.2 µM | 
29 | [O]=[Cr](=[O])([OH])[O][Cr](=[O])(=[O])[OH] | inconclusive: 39.8 µM | 
30 | c1cc2ccc3cccc4ccc(c1)c2c34 | inconclusive: 15.8 µM | 
31 | CC1N(P(=O)(c2ccccc2)c2ccccc2)CC(O)(c2ccccc2)CC12CC2 (centres undefined) |  | inactive: -3.7%
32 | CCOC(=O)C1CCN(/C=C2/C(=O)NC(=O)N(Cc3ccco3)C2=O)CC1 | active: 7.94 µM | 
33 | c1ccc2c(CCNC3=NCCC3)c[nH]c2c1 | inconclusive: 6.31 µM | 
34 | O=C(c1ccc2nc(-c3ccco3)c(-c3ccco3)nc2c1)N1CCC2(CC1)OCCO2 | inconclusive: 31.6 µM | 
35 | c1ccc(C(OCCN2CCNCC2)c2ccccc2)cc1 | inconclusive: 6.31 µM | 
36 | Cc1cnn(C2CCN(C)CC2)c1N | inconclusive: 6.31 µM | 
37 | O=[N+]([O-])c1cc(C(F)(F)F)cc([N+](=O)[O-])c1Cl |  | inactive: -6.9%
38 | Cl.Cl.Cl.Cl.Cl.Cl.N.N.N.N.NNNNN.NNNNN.O.O.[Ru].[Ru].[Ru] | inconclusive: 39.8 µM | 
39 | [Cd+2].[Cl-].[Cl-] | active: 0.0631 µM | 
